This is an account of results in article PMC5700166.

Only a part is listed here, and it is no random draw. The list includes weakly bound sequences.

The target in one assay is T1, GST-Ap-NF-kB RHD (UniProt A0A913YAJ5).
T1 sequence: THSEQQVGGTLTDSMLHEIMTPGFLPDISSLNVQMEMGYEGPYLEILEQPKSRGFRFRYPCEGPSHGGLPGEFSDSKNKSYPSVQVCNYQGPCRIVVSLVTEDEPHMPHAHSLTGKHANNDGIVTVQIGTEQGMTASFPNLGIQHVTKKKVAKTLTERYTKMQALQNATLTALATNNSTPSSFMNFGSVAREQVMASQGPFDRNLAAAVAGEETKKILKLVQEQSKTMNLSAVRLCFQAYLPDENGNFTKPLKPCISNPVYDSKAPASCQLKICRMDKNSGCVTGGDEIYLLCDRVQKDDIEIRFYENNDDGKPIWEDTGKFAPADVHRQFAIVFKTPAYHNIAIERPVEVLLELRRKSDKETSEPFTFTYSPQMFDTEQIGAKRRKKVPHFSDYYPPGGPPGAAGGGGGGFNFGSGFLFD
The assay is described as follows: protein-binding microarray (PBM). The note with it: PBM: ~300 nM protein, 6 mM HEPES pH 7.8, 80 mM KCl, 0.5 mM EDTA, 0.5 mM EGTA, 6% glycerol, 35 ng/ul poly-dIdC, 1% milk, 1 h, room temperature; high values mean tight binding; double strand, one strand shown.
In turn, “CCGATTAACATCACACTACATCGTGATGTTAATCGGGTCTTGATTCGCTTGACGCTGCTG” came in with a binding signal of -0.882 z-score. For the sequence “CCGATTAACATCAGCGCAAGATATGATGTTAATCGGGTCTTGATTCGCTTGACGCTGCTG”, the binding signal is -0.534 z-score. For the sequence “CCGATTAACATCACAACTCACATTGATGTTAATCGGGTCTTGATTCGCTTGACGCTGCTG”, the binding signal was -0.164 z-score.

“CCGATTAACATCAGGGAATTCCCTGATGTTAATCGGGTCTTGATTCGCTTGACGCTGCTG” displayed a binding signal of 12 z-score. “CCGATTAACATCAACTAAATTCCTGATGTTAATCGGGTCTTGATTCGCTTGACGCTGCTG”: the binding signal was -0.401 z-score. In turn, “CCGATTAACATCAGTGATTAAGGTGATGTTAATCGGGTCTTGATTCGCTTGACGCTGCTG” displayed a binding signal of -0.31 z-score.

Sequence “CCGATTAACATCAGGAAATCTCCTGATGTTAATCGGGTCTTGATTCGCTTGACGCTGCTG” yielded a binding signal of -0.717 z-score.

For the sequence “CCGATTAACATCAGTGGAAAGTATGATGTTAATCGGGTCTTGATTCGCTTGACGCTGCTG”, the binding signal is -0.0365 z-score. Regarding “CCGATTAACATCATTGTTATGCTTGATGTTAATCGGGTCTTGATTCGCTTGACGCTGCTG”, the binding signal was -0.569 z-score. For “CCGATTAACATCACCAATTTTCCTGATGTTAATCGGGTCTTGATTCGCTTGACGCTGCTG”, the binding signal stood at 0.372 z-score. For the sequence “CCGATTAACATCAGGCCGCCCGCTGATGTTAATCGGGTCTTGATTCGCTTGACGCTGCTG”, the binding signal came to 0.247 z-score.

The next assay deals with T2, GST-Nv-NF-kB (Cys allele) (UniProt E5G601).
T2 sequence: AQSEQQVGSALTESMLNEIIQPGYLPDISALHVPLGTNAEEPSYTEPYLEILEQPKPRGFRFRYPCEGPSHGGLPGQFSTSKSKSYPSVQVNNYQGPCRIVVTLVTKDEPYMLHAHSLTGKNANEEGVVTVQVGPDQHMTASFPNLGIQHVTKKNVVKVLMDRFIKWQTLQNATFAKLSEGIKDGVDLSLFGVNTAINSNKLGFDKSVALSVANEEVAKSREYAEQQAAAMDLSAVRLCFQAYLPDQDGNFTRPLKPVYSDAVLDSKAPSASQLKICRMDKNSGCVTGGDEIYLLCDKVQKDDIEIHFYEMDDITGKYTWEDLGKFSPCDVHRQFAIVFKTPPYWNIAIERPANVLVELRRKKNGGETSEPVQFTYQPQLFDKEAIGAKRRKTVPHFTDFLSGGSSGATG
The assay is described as follows: protein-binding microarray (PBM). Particulars: PBM: ~300 nM protein, 6 mM HEPES pH 7.8, 80 mM KCl, 0.5 mM EDTA, 0.5 mM EGTA, 6% glycerol, 35 ng/ul poly-dIdC, 1% milk, 1 h, room temperature; Ap Aiptasia and Nv Nematostella (sea anemones) / Co Capsaspora / Aq Amphimedon (sponge) / Dm Drosophila / Hu human; RHD is the Rel homology domain; high values mean tight binding; most listed sequences are background and not binding sites; double strand, one strand shown.
“CCGATTAACATCACCGAACGCTTTGATGTTAATCGGGTCTTGATTCGCTTGACGCTGCTG” returned a binding signal of -0.507 z-score. Sequence “CCGATTAACATCAGTAGGTTCTTTGATGTTAATCGGGTCTTGATTCGCTTGACGCTGCTG” showed a binding signal of -0.15 z-score. As for “CCGATTAACATCAACGCCCTGCCTGATGTTAATCGGGTCTTGATTCGCTTGACGCTGCTG”, the binding signal was -0.482 z-score. In turn, “CCGATTAACATCATATGAGGACCTGATGTTAATCGGGTCTTGATTCGCTTGACGCTGCTG” gave a binding signal of -0.632 z-score.

As to “CCGATTAACATCACTGTTCACTCTGATGTTAATCGGGTCTTGATTCGCTTGACGCTGCTG”, the binding signal is -0.326 z-score.

As for “CCGATTAACATCATTAGCGTTACTGATGTTAATCGGGTCTTGATTCGCTTGACGCTGCTG”, the binding signal was -0.194 z-score. The sequence “CCGATTAACATCACGAAGCTTGATGATGTTAATCGGGTCTTGATTCGCTTGACGCTGCTG” returned a binding signal of -0.447 z-score. Take “CCGATTAACATCAGTTCTCCGGGTGATGTTAATCGGGTCTTGATTCGCTTGACGCTGCTG”: the binding signal was 0.0598 z-score. Consider “CCGATTAACATCACTAATCTTTTTGATGTTAATCGGGTCTTGATTCGCTTGACGCTGCTG”, for which the binding signal is -0.237 z-score. Still for that read-out and setting: the same measure for “CCGATTAACATCAGGATTTTCTATGATGTTAATCGGGTCTTGATTCGCTTGACGCTGCTG”: -0.504 z-score; for “CCGATTAACATCAGCGTTGGATGTGATGTTAATCGGGTCTTGATTCGCTTGACGCTGCTG”: -0.813 z-score; for “CCGATTAACATCAGCTCTGGAACTGATGTTAATCGGGTCTTGATTCGCTTGACGCTGCTG”: -0.89 z-score. On to “CCGATTAACATCATAAACTCTCTTGATGTTAATCGGGTCTTGATTCGCTTGACGCTGCTG”, for which the binding signal was -0.461 z-score.

Turning to “CCGATTAACATCAGACGCTATAATGATGTTAATCGGGTCTTGATTCGCTTGACGCTGCTG”, the binding signal is 0.0067 z-score. On the same count and under the same terms, the result for “CCGATTAACATCAGCGATTCCTTTGATGTTAATCGGGTCTTGATTCGCTTGACGCTGCTG” reads -0.423 z-score; that for “CCGATTAACATCACGGAATCTCCTGATGTTAATCGGGTCTTGATTCGCTTGACGCTGCTG”, 0.0139 z-score.

In the case of “CCGATTAACATCAACCCTCGAACTGATGTTAATCGGGTCTTGATTCGCTTGACGCTGCTG”, the binding signal is -0.317 z-score. As for “CCGATTAACATCATCGACAGCAGTGATGTTAATCGGGTCTTGATTCGCTTGACGCTGCTG”, the binding signal is -0.622 z-score. The same measure, in the same setting: the same measure for “CCGATTAACATCAAAGTGGTCTTTGATGTTAATCGGGTCTTGATTCGCTTGACGCTGCTG”: 0.12 z-score; for “CCGATTAACATCATTTCTCCTATTGATGTTAATCGGGTCTTGATTCGCTTGACGCTGCTG”: -0.0265 z-score; for “CCGATTAACATCAGGATTGCCCATGATGTTAATCGGGTCTTGATTCGCTTGACGCTGCTG”: 0.107 z-score. Regarding “CCGATTAACATCAGTGCAGTCTATGATGTTAATCGGGTCTTGATTCGCTTGACGCTGCTG”, the binding signal is 0.235 z-score. In the case of “CCGATTAACATCAGTTCCTAATATGATGTTAATCGGGTCTTGATTCGCTTGACGCTGCTG”, the binding signal came out at 0.503 z-score. “CCGATTAACATCAAAGATTTGAATGATGTTAATCGGGTCTTGATTCGCTTGACGCTGCTG” registered a binding signal of -0.0243 z-score. In turn, “CCGATTAACATCACTCTGGCTCTTGATGTTAATCGGGTCTTGATTCGCTTGACGCTGCTG” gave a binding signal of -0.122 z-score.

Sequence “CCGATTAACATCAGTGCTGACCGTGATGTTAATCGGGTCTTGATTCGCTTGACGCTGCTG” had a binding signal of 0.00688 z-score.
